Article PMC4336329 (PLoS ONE, 2015)
Hit rate of the full screen: of about 310,000 compounds, about 14,000 (4.5%) showed an effect of 50% or more. The effect is printed as a negative number. The list shows a part of the results.

Each compound was assayed against human ether-à-go-go-related gene (hERG) potassium channel (human, UniProt Q12809) (assay: primary screen, population patch clamp on CHO cells stably expressing hERG).
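Also: peak tail current of the secondary pulse compared with the same well before compound.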

Sequence of human ether-à-go-go-related gene (hERG) potassium channel (Q12809 whole entry, looked up): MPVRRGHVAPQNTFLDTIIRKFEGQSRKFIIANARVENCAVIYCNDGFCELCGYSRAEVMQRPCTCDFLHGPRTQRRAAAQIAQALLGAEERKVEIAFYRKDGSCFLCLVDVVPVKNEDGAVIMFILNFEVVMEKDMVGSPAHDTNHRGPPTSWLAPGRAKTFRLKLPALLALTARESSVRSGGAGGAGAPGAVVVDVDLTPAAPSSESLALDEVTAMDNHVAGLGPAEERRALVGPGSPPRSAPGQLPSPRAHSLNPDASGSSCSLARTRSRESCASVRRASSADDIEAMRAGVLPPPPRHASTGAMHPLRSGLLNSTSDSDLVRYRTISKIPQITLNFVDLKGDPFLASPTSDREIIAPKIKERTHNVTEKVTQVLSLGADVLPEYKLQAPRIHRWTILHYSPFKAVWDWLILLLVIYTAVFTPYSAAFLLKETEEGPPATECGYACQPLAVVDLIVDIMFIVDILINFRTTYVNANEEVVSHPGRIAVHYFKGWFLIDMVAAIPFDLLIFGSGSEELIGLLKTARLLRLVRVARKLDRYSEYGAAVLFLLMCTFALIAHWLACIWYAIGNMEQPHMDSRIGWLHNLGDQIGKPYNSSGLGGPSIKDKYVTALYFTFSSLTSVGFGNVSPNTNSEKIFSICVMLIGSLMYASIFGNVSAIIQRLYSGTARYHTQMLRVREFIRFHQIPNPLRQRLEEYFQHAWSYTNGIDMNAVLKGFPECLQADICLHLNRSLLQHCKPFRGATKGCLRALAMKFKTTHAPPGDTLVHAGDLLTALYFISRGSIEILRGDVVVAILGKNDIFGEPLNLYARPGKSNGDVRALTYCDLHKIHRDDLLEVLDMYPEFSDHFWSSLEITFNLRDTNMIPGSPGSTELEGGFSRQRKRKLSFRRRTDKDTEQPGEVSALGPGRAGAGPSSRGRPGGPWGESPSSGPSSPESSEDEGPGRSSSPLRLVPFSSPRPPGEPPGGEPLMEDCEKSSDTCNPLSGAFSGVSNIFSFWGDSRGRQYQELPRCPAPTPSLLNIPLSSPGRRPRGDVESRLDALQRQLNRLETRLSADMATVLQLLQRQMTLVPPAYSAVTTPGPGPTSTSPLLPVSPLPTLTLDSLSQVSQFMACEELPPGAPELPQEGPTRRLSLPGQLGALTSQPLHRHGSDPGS

Row | SMILES | hERG current change (%, negative = inhibition) at 10uM [%]
1 | Cc1cc([N+](=O)[O-])nn1Cn1nc([N+](=O)[O-])cc1C | -27.3
2 | Cc1cc(Br)c(NC(=O)CCNC(=O)OCc2ccccc2)cc1C | 2.98
3 | COc1ccc(CCNC(=O)Cn2ccc3c(OC)cccc3c2=O)cc1OC | -8.6
4 | O=C(COC(=O)c1cc(S(=O)(=O)N2CCOCC2)ccc1Cl)NCc1ccco1 | -24.6
5 | O=C(c1ccc(Cl)c(S(=O)(=O)N2CCCCC2)c1)N1CCCC(C(F)(F)F)C1 (stereo not drawn) | -31.8
6 | CCOc1ccc(N(CC)C(=O)CCNC(=O)Cn2ccc3ccccc3c2=O)cc1 | 5.61
7 | Cc1ccc(S(=O)(=O)N2CCOCC2)cc1NC(=O)COC(=O)CCOc1ccc(C(C)(C)C)cc1 | -9.54
8 | CCn1nnnc1-c1ccc(OC)c(S(=O)(=O)Nc2ccc(OC)cc2)c1 | -6.08
9 | COc1ccc(C(=O)NCC(C)(C)CNC(=O)c2ccc(OC)cc2)cc1 | -14.5
10 | CCOC(=O)N1CCC(N(CCN(C)C)C(=S)Nc2cccc(OC)c2)CC1 | -2.12
11 | COC(=O)c1cc(S(=O)(=O)NCc2ccc(Br)cc2)c[nH]1 | -16.1
12 | O=C(NCCc1nc2ccccc2[nH]1)/C(=C/c1ccco1)NC(=O)c1ccccc1Br | -64.9
13 | COc1cc(NC(=O)c2ccc(Br)cc2)c(OC)cc1NC(=O)c1ccccc1 | 17.9
14 | CC(Sc1nc(-c2ccccc2)nc2c1COC(C)(C)C2)C(=O)N1CCOCC1 (stereo not drawn) | -45.3
15 | Cc1nc2c(C)cccn2c1/C(O)=C1\C(=O)C(=O)N(CCN(C)C)C1c1ccccc1 (stereo not drawn) | 15
16 | CC(=O)Nc1sc(C)c(C)c1C(=O)OCC(=O)N(C)C1CCS(=O)(=O)C1 (stereo not drawn) | -7.65
17 | Cc1cccc(N(C(=O)c2csnn2)C(C(=O)NC2CCCCC2)c2ccncc2)c1 (stereo not drawn) | 16.8
18 | C/C(N)=C(/C#N)C(=O)CSc1nc2ccccc2c(=O)n1Cc1ccc(C)cc1 | -2.86
19 | O=C(NC1CCS(=O)(=O)C1)c1ccc2c(c1)OCO2 (stereo not drawn) | 13
20 | Cc1c(C=O)c2ccccc2n1CC(=O)N1CCc2ccccc2C1 | 7.08
21 | O=C(OCC(=O)N1CCN(C(=O)c2ccco2)CC1)c1sc2ccccc2c1Cl | -10.8
22 | O=S1(=O)C=CC(Nc2cccc(Cl)c2)C1 (stereo not drawn) | 16.7

Row | SMILES | hERG current change (%, negative = inhibition) at 10uM [%]
23 | O=C(CCc1ccccc1)Nc1ccccc1F | 6.18
24 | COc1ccc(C(=O)c2c(C)oc3ccc(O)c(CN4CCOCC4)c23)cc1 | -29.5
25 | CC1=C(C(=O)Nc2ccccc2)C(c2ccco2)C(C#N)=C(SCC(N)=O)N1 (stereo not drawn) | -3.31
26 | N#C/C(=N\Nc1ccc(F)cc1)C(=O)C1CC1 | 16.7
27 | COc1ccc(S(=O)(=O)N2CCN(C(=O)c3cc(C)oc3C)CC2)cc1OC | -4.8
28 | O=C(CSc1ncccn1)NCc1ccc(Cl)cc1 | 4.02
29 | COc1ccccc1N(Cc1cc(=O)[nH]c2ccccc12)C(=O)c1ccc([N+](=O)[O-])cc1 | -28.7
30 | CCOc1ccc(NC(=S)N(CC)Cc2ccccc2)cc1 | 0.19
31 | CN(C(=O)CSc1ncc(C(F)(F)F)cc1Cl)c1c(N)n(Cc2ccccc2)c(=O)[nH]c1=O | 8.25
32 | Cc1ccc(S(=O)(=O)N(C)CC(=O)N2CCCC2)cc1 | 1.73
33 | CC(C)(O)[C@@H]1CC(=O)[C@]2(C)[C@H](CC[C@@]3(C)[C@H](c4ccoc4)OC(=O)[C@H]4O[C@]432)[C@@]1(C)/C=C\C(=O)O | 26.6
34 | CCC(=O)N1c2ccc(S(=O)(=O)N3CCN(c4ccc([N+](=O)[O-])cc4)CC3)cc2CC1C (stereo not drawn) | -47
35 | COc1cccc(NC(=O)CNC(=O)c2ccc(F)cc2)c1 | -6.34
36 | COc1ccc(C)cc1NC(=O)NCc1ccc(F)cc1 | -13.4
37 | CSCCC(C(=O)OCC(=O)c1ccc(C)c(C)c1)N1C(=O)c2ccccc2C1=O (stereo not drawn) | -5.42
38 | CC(C)(C)C(=O)NC(=S)NNC(=O)C(c1ccccc1)c1ccccc1 | -13
39 | CSc1ccccc1NC(=O)Cn1nnc(-c2ccc(S(C)(=O)=O)cc2)n1 | 23.2
40 | COc1ccccc1NC(=O)CSc1nnc2ccc(-c3ccccn3)nn12 | -29.1
41 | Cc1ccc(CN2CCSc3ccc(C(=O)N4CCC5(CC4)OCCO5)cc32)cc1 | -49.1
42 | CC(C)C(=O)NC(=S)N1CCc2ccccc21 | 16.6
43 | O=C(c1cc(-c2cccc(Cl)c2)nc2ccccc12)N1CCN(c2ccccn2)CC1 | 4.63
44 | CC(Sc1n[nH]c(N)n1)C(=O)NC1CCCCC1C (stereo not drawn) | 4.4

Row | SMILES | hERG current change (%, negative = inhibition) at 10uM [%]
45 | CN1CCN(S(=O)(=O)c2cnccc2N2CCN(c3cccc(Cl)c3)CC2)CC1 | -9
46 | CC(C)c1nc2c(s1)CCc1onc(-c3ccc(Cl)cc3)c1-2 | 14.4
47 | COc1ccc(N2CCN(C(c3cccs3)C(C)NS(C)(=O)=O)CC2)cc1 (stereo not drawn) | 7.84
48 | Cc1cc(C)nc(/N=C(\N)N2CCCCC2)n1 | -1.13
49 | CCOc1ccccc1CNCC1CCCO1.Cl (stereo not drawn) | 11.5
50 | CCCCCc1nnc(NC(=O)c2ccc3nc[nH]c3c2)s1 | -8.22
51 | O=Cc1sc([O-])nc1-[n+]1ccc2ccccc2c1 | 7.51
52 | CCOC(=O)N1CCN(S(=O)(=O)N2CCCC(C(=O)NCCc3ccc(C)cc3)C2)CC1 (stereo not drawn) | -5.45
53 | Cc1ccc(NC(=O)C(NC2CCCc3ccccc32)c2ccccc2)c([N+](=O)[O-])c1.O=C(O)C(=O)O (stereo not drawn) | -1.43
54 | O=C(OCC(=O)N1CCN(c2ccccc2)CC1)c1ccccc1[N+](=O)[O-] | -28.8
55 | O=C(Cc1ccccc1)NNC(=O)Nc1cccc(Cl)c1 | 7.04
56 | N/C(=N\OC(=O)COc1ccccc1Cl)c1ccc(Cl)cc1 | 19.7
57 | CC1Oc2cc3oc4c(O)c(O)ccc4c(=O)c3c(O)c2C1(C)C (stereo not drawn) | 16.2
58 | Cn1c(=O)cc(SCC(=O)N2CCN(Cc3ccc4c(c3)OCO4)CC2)c2ccccc21 | -15.5
59 | Cc1c2ccccc2nc2c(F)c(N(C)C)c(F)c(F)c12 | 21.1
60 | Cc1cc(C)n(CCNC(=O)c2ccc3c(c2)OCO3)n1 | 12.1
61 | COc1ccc(Cl)cc1-n1c(C)cc(C(=O)O)c1C | 11.1
62 | CCn1c(SCC(=O)Nc2ccc(OC)cc2)nnc1-c1ccco1 | -22.3
63 | COc1ccc(CCNCc2cc3ccc(C)cc3[nH]c2=O)cc1OC | -73.6
64 | Cn1c(Cc2ccccc2)nnc1SCC(=O)N1CCOCC1 | -1.67
65 | COc1ccc(OCC(=O)Nc2cc(OC)ccc2N2CCCCC2)cc1 | 12.7
66 | C=C1c2ccccc2NC(=S)N1Cc1ccc2c(c1)OCO2 | 27.5

Row | SMILES | hERG current change (%, negative = inhibition) at 10uM [%]
67 | Cc1c(N2CCCC2)cc2c(c1N)C(C)(C)CC2(C)C | -5.14
68 | COc1ccc(OC)c(Nc2nc(-c3ccc(O)c(O)c3)cs2)c1 | 10.8
69 | CCN(CC)S(=O)(=O)c1ccc(S(=O)(=O)N2CCC(N3CCCCC3)CC2)cc1 | -28.3
70 | CCC(C)NC(=O)C1c2ccccc2C(=O)N1Cc1ccc(OC)cc1OC (stereo not drawn) | 12.2
71 | CCCN1CCN(C(=O)Cn2ncc3ccccc32)CC1 | 12.2
72 | CC(O)CSc1nc2c(c(=O)[nH]c(=O)n2C)n1CC(O)COc1ccccc1 (stereo not drawn) | 17
73 | COCCOC(=O)c1[nH]c2c(c1C)C(=O)CC(c1ccccc1)C2 (stereo not drawn) | 3.61
74 | Cn1c(SCC(=O)NCC2CCCO2)nc2scc(-c3ccccc3)c2c1=O (stereo not drawn) | -9.19
75 | Cn1c2c(c(=O)n(C)c1=O)C(NC(=O)C(C)(C)C)(C(F)(F)F)C(=O)N2 (stereo not drawn) | 5.09
76 | CCOC(=O)Nc1ccc2c(c1)N(C(=O)CN(CC)CC)c1ccccc1CC2.Cl | -1.1
77 | CCCCN(CC)CCNC(=O)c1cn(-c2ccc(Cl)cc2)c(=O)c2ccccc12 | -77.7
78 | Cc1ccc(Cc2cc(C)n[nH]c2=O)cc1 | 29.9
79 | COc1ccc(NC(=S)Nc2ccc(OC)cc2OC)c(OC)c1 | 19.5
80 | O=C(CSc1oc(-c2cccs2)nc1S(=O)(=O)c1ccccc1)NC1CCCCC1 | 17.7
81 | Cc1ccc(S/C=C\C(=O)c2ccccc2)cc1 | -2.59
82 | CCOc1ncccc1C(=O)NNC(=O)c1cccc(S(=O)(=O)Nc2ccccc2OC)c1 | -7.21
83 | Cc1ccc(/C=C2\CCC3=C2OC(N)=C(C#N)C3c2ccc(C)cc2)cc1 (stereo not drawn) | 10.6
84 | Cc1cc(O)ccc1Nc1nc(-c2sc(N)nc2C)cs1 | -21.7
85 | COc1cc(=O)n(C)c2c(O)cccc12 | 21
86 | O=C(Nc1ccccc1N1CCOCC1)c1ccc(Cl)c(S(=O)(=O)N2CCCC2)c1 | -11.3
87 | COc1ccc(C(=O)Nc2cc3c4c(c2)C(C)C(=O)N4CCC3)c(OC)c1 (stereo not drawn) | -10.5
